PubChem BioAssay AID686979 (National Center for Advancing Translational Sciences (NCATS), 2013)
About 50,000 (12%) of roughly 420,000 compounds were called active. Inconclusive means that the source gave no clear call. Such entries were picked first, then a sample of the others. Calls come from the whole dose curve; as a rule, active = well fitted inhibition curve with a large enough effect; inconclusive = small, poorly fitted or top-dose-only effect; inactive = flat fitted curve, though single readings scatter. Potencies of inconclusive entries are left out as doubtful fits.

Test: qHTS for Inhibitors of human tyrosyl-DNA phosphodiesterase 1 (TDP1): qHTS in cells in presence of CPT; note: nearly all actives have a fitted effect of over 55% in size
Conditions: chicken DT40 Tdp1-/-;hTDP1 cells + 20 nM CPT, ATP luminescence, 48 h; activity change, negative = growth inhibition: at 46.2 µM (top of the series)
Method in brief: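 Chicken DT40 Tdp1-/- cells complemented with human TDP1, 400 cells/well, exposed to compounds plus 20 nM camptothecin for at least 48 h at 37 C; viability read as ATP content by CellTiter-Glo luminescence.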
% is set by controls: 0 for no effect and ±100 for the full control effect; potency is the fitted concentration of half-maximal effect; tags give direction and shape of the fitted curve.

**Q.** For CCOC(=O)c1ccccc1NC(=O)COC(=O)CCC(=O)N1CCOCC1, which “activity change, negative = growth inhibition” value is on record?
**A.** inactive: 6.01%

**Q.** For CCOc1ccc(CN2CCNC(=O)C2CC(=O)NCCCC2CCCC2)cc1 (centres undefined), which Potency is on record?
**A.** active: 16.4 µM

**Q.** For CSc1nsc(/C=C/Nc2ccc(Cl)cc2)c1C#N, which Potency is on record?
**A.** inconclusive [inhibitor, partial curve]

**Q.** For O=C(Cn1ncc(Cl)c(Cl)c1=O)NC1CCCCC1, which Potency is on record?
**A.** active: 10.3 µM

**Q.** With CCOc1ccc(/C=N/NC(=S)NC2CC3C=CC2C3)cc1 (centres undefined) as the molecule, how does the Potency read?
**A.** inconclusive [inhibitor, single point]

**Q.** Which “activity change, negative = growth inhibition” value does the source give for Cc1ccccc1CC(=O)NC1CCCCCC1 here?
**A.** inactive: -11%

**Q.** Which “activity change, negative = growth inhibition” value does the source give for O=C(O)C1CC1C(=O)Nc1nc2c(Cl)cccc2s1 (centres undefined) here?
**A.** inactive: 0.419%

**Q.** With CCNS(=O)(=O)c1ccc(NC(=O)Nc2cc(C)ccc2OC)cc1 as the molecule, how does the Potency read?
**A.** inconclusive [inhibitor, single point]

**Q.** With Cc1cccc(Nc2nc(-c3ccccc3)c(C(=O)Nc3cccnc3)s2)c1 as the molecule, how does the Potency read?
**A.** inconclusive [inhibitor, single point]

**Q.** Which Potency does the source give for CCOc1cc(NC(=S)NCC2CCCO2)c(OCC)cc1NC(=O)c1ccccc1F (centres undefined) here?
**A.** inconclusive [inhibitor, single point]

**Q.** With CSc1ccc(CNCc2c(C(=O)O)c(C)n(Cc3ccc(F)cc3Cl)c2C)cc1 as the molecule, how does the Potency read?
**A.** inconclusive [inhibitor, single point]

**Q.** For CCn1nc(C)c(NC(=O)c2cnn3c(C(F)F)cc(-c4ccccc4)nc23)c1C, which Potency is on record?
**A.** inconclusive [inhibitor, single point]

**Q.** For COc1ccc(C(=O)Nc2cc(Cl)ccc2-n2cncn2)c(OC)c1OC, which Potency is on record?
**A.** inconclusive [inhibitor, partial curve]

**Q.** With O=C(Cc1sc(-c2ccccc2)nc1-c1ccccc1)Nc1ccccc1 as the molecule, how does the Potency read?
**A.** inconclusive [inhibitor, partial curve]

**Q.** With CCCOc1ccc(/C=C/C(=O)Nc2ccc([N+](=O)[O-])cc2C)cc1OC as the molecule, how does the Potency read?
**A.** inconclusive [inhibitor, partial curve]

**Q.** With Cc1cccc(N(CC(=O)N/N=C/c2cc([N+](=O)[O-])ccc2Cl)S(C)(=O)=O)c1C as the molecule, how does the Potency read?
**A.** inconclusive [inhibitor, single point]

**Q.** Which Potency does the source give for CCC1(C)Cc2c(sc3nc(SC)n(Cc4ccccc4)c(=O)c23)CO1 (centres undefined) here?
**A.** active: 13 µM

**Q.** Which Potency does the source give for C=CCN1C(=O)C2(NNc3ccccc3O2)c2ccccc21 (centres undefined) here?
**A.** active: 6.51 µM

**Q.** For O=C(Nc1nc(-c2cc(Cl)sc2Cl)cs1)c1ccccc1, which Potency is on record?
**A.** inconclusive [inhibitor, single point]

**Q.** With COc1cccc(NC(=O)COC(=O)c2c3c(nc4ccccc24)CCC(C)C3)c1 (centres undefined) as the molecule, how does the Potency read?
**A.** active: 8.2 µM

**Q.** With Cc1onc(-c2ccccc2Cl)c1C(=O)Nc1ccccc1C(N)=O as the molecule, how does the Potency read?
**A.** inconclusive [inhibitor, single point]

**Q.** Which Potency does the source give for CCOc1ccc2cc(C3CC(c4ccco4)=NN3S(=O)(=O)c3ccccc3)c(Cl)nc2c1 (centres undefined) here?
**A.** inconclusive [inhibitor, single point]

**Q.** For CC(=O)c1cccc(NC(=O)CN2C(=O)NC(C)(c3ccc4c(c3)OCCCO4)C2=O)c1 (centres undefined), which Potency is on record?
**A.** inconclusive [inhibitor, single point]

**Q.** For CN1CCC2(CC1)N=C(c1ccc(F)cc1)C(=S)N2C(=O)c1ccccc1, which Potency is on record?
**A.** active: 7.31 µM

**Q.** For CN(CC(=O)Nc1ccc(Cl)cc1)CC(=O)Nc1cccc2ccccc12, which Potency is on record?
**A.** inconclusive [inhibitor, single point]

**Q.** For COCCC(=O)N1CCC(Oc2ccc(C(=O)N3C[C@@H]4CCC[C@H]3C4)cc2)CC1, which “activity change, negative = growth inhibition” value is on record?
**A.** inactive: -0.253%

**Q.** With CCCCCCOC(=O)C[N+](C)(C)CCOC1CC2CCC1(C)C2(C)C (centres undefined) as the molecule, how does the Potency read?
**A.** inconclusive [inhibitor, single point]

**Q.** Which Potency does the source give for COc1ccc(CN(C(=O)c2snc(C(N)=O)c2N)C(CC(C)C)C(=O)NC2CCCCC2)cc1 (centres undefined) here?
**A.** inconclusive [inhibitor, single point]

**Q.** Which Potency does the source give for COc1cccc(-c2oc3c(c2-c2ccc(Br)nc2)C(O)CCC3)c1 (centres undefined) here?
**A.** inconclusive [inhibitor, single point]

**Q.** With O=C(NCCc1c[nH]c2ccccc12)c1ccc2nc[nH]c2c1 as the molecule, how does the “activity change, negative = growth inhibition” value read?
**A.** inactive: 8.25%

**Q.** Which Potency does the source give for O=C(Nc1ccncc1)c1cc2ccccc2cc1O here?
**A.** inconclusive [inhibitor, single point]

**Q.** For COc1cccc(N2CCN(C(=O)C3CCCN(S(=O)(=O)c4ccc(Br)s4)C3)CC2)c1 (centres undefined), which Potency is on record?
**A.** inconclusive [inhibitor, single point]

**Q.** With CC(CC(=O)O)CC1=NS(=O)(=O)c2ccccc2N1 (centres undefined) as the molecule, how does the activity change, negative = growth inhibition read?
**A.** inconclusive: -28.4% [inhibitor]

**Q.** With CCc1cc(-c2n[nH]c(CCC(=O)O)c2-c2nc3ccccc3n2C)c(O)cc1O as the molecule, how does the “activity change, negative = growth inhibition” value read?
**A.** inactive: -24.7%

**Q.** With Cn1c(=O)c2c(nc(NC3CCCCC3)n2CC(O)COc2ccccc2)n(C)c1=O (centres undefined) as the molecule, how does the Potency read?
**A.** inconclusive [inhibitor, partial curve, poor fit]

**Q.** Which Potency does the source give for O=C(Cn1c(=O)n2nc(-c3ccccc3)nc2c2ccccc21)Nc1ccccc1C(F)(F)F here?
**A.** inconclusive [inhibitor, single point]

**Q.** With Cc1ccc2oc(=O)c(/C=C(\O)c3sc(C)nc3C)nc2c1 as the molecule, how does the Potency read?
**A.** inconclusive [inhibitor, single point]

**Q.** Which Potency does the source give for Cc1cccc(OCc2nnc(SCc3cc(=O)n4cc(Br)ccc4n3)o2)c1 here?
**A.** inconclusive [inhibitor, single point]

**Q.** For COc1ccc(C(=O)Nc2ccc3[nH]c(-c4cccc(OC)c4)cc(=O)c3c2)cc1, which Potency is on record?
**A.** active: 1.03 µM

**Q.** With COc1ccc(CNC(=O)c2cccc(N3CCCS3(=O)=O)c2)cc1 as the molecule, how does the “activity change, negative = growth inhibition” value read?
**A.** inactive: -22.7%

**Q.** Which Potency does the source give for Cc1onc(-c2ccccc2)c1C(=O)NC(=S)NNC(=O)c1ccc(O)cc1O here?
**A.** active: 4.11 µM

**Q.** Which Potency does the source give for Cc1cc(S(=O)(=O)NCc2ccncc2)c(C)cc1Br here?
**A.** active: 8.2 µM

**Q.** Which “activity change, negative = growth inhibition” value does the source give for CC(C)(C)c1ccc(C(=O)NNC(=O)c2cccc(-n3cnnn3)c2)cc1 here?
**A.** inactive: -19.4%

**Q.** Which “activity change, negative = growth inhibition” value does the source give for O=C1[C@@H]2CSC(c3ccc(F)cc3)N2C(=O)N1c1ccc(Cl)cc1 (some centres undefined) here?
**A.** inactive: 2.98%

**Q.** For COc1ccc(-c2sc3ccccc3c2-c2cc(OC)ccc2C=O)cc1, which Potency is on record?
**A.** inconclusive [inhibitor, single point]

**Q.** For Cc1ccc(N/C=C/C(=O)c2ccccc2)cc1Br, which “activity change, negative = growth inhibition” value is on record?
**A.** inactive: -8.74%

**Q.** With O=C(CC1SC(N2CCCC2)=NC1=O)Nc1ccc(C(=O)Nc2ncccc2O)cc1 (centres undefined) as the molecule, how does the Potency read?
**A.** active: 14.6 µM

**Q.** Which Potency does the source give for COc1cc2c(cc1OC)CN(C(=O)CSc1nnc3scc(-c4ccccc4)n13)CC2 here?
**A.** inconclusive [inhibitor, single point]

**Q.** Which “activity change, negative = growth inhibition” value does the source give for C/C=C(\C)NNC(=O)Cc1ccc(OC)cc1 here?
**A.** inactive: -9.2%

**Q.** With CC(C)Cn1c(N)c(C(=O)CSc2nnc(-c3ccco3)n2C)c(=O)n(C)c1=O as the molecule, how does the activity change, negative = growth inhibition read?
**A.** inconclusive: -30.8% [inhibitor]

**Q.** Which Potency does the source give for CCOC(=O)N1CCC(NC(=O)c2cc(C(=O)Nc3ccc(S(=O)(=O)N4CCOCC4)cc3)ccc2CO)CC1 here?
**A.** inconclusive [inhibitor, single point]

**Q.** With CC(=O)N(CCC(Cc1ccccc1)c1ccc2c(c1)OCO2)Cc1ccc(Cl)cc1 (centres undefined) as the molecule, how does the Potency read?
**A.** inconclusive [inhibitor, single point]

**Q.** For Cc1ccc(CN2CCc3[nH]c(=S)[nH]c(=O)c3C2)cc1, which Potency is on record?
**A.** inconclusive [inhibitor, single point]

**Q.** For Cc1ccc(CNC(=O)CCCn2nc(C)n3ccnc3c2=O)cc1, which “activity change, negative = growth inhibition” value is on record?
**A.** inactive: 2.61%

**Q.** For Cn1c(=S)[nH]c2c(c1=O)C(C)(C)Cc1ccccc1-2, which Potency is on record?
**A.** inconclusive [inhibitor, single point]

**Q.** Which Potency does the source give for CC(NC(=S)Nc1c(Br)cccc1OC(F)F)C(C)(C)C (centres undefined) here?
**A.** inconclusive [inhibitor, single point]

**Q.** For Cn1nc(C(=O)N2CCN(C(c3ccccc3)c3ccccc3)CC2)c2ccccc2c1=O, which Potency is on record?
**A.** active: 23.1 µM

**Q.** For CC(=O)NC(c1ccccc1)c1nc(-c2cc(F)cc(F)c2)cs1 (centres undefined), which “activity change, negative = growth inhibition” value is on record?
**A.** inactive: -9.96%

**Q.** For O=C(CCc1c[nH]c2ccccc12)N[C@@H](Cc1c[nH]c2ccc(O)cc12)C(=O)O, which “activity change, negative = growth inhibition” value is on record?
**A.** inactive: -5.36%

**Q.** Which Potency does the source give for CCCCOCCCNC(=O)C[C@@H]1C[C@@]2(C(=O)OC)CCCCC=C2N(Cc2ccc(Cl)cc2Cl)C1=O here?
**A.** inconclusive [inhibitor, single point]

**Q.** With O=C1CC(Cc2ccc(Br)cc2)C(=O)N1c1ccccc1 (centres undefined) as the molecule, how does the Potency read?
**A.** inconclusive [inhibitor, single point]

**Q.** Which Potency does the source give for Cc1cccc(CN2CCN(C3CN(C4CCCCC4)S(=O)(=O)C3)CC2)c1 (centres undefined) here?
**A.** inconclusive [inhibitor, single point]

**Q.** Which Potency does the source give for CCOC(=O)c1ccc(NC(=O)NCCc2ccccc2OC)cc1 here?
**A.** inconclusive [inhibitor, partial curve]

**Q.** For Cc1ccc(C)n1-c1nnc(N2CCC(C(=O)NCc3ccccc3Cl)CC2)s1, which Potency is on record?
**A.** inconclusive [inhibitor, single point]

**Q.** Which Potency does the source give for CCN(CC)CCCNC(=O)c1ccc(OCC(=O)Nc2ccccc2C(F)(F)F)c(OC)c1 here?
**A.** inconclusive [inhibitor, single point]

**Q.** Which Potency does the source give for O=C(CCn1ccc2cc(S(=O)(=O)N3CCCC3)ccc21)NCCc1ccccc1 here?
**A.** inconclusive [inhibitor, single point]

**Q.** With CC1(C)CC(CC(=O)NNc2nc(-c3ccccc3)cs2)C(=O)O1 (centres undefined) as the molecule, how does the Potency read?
**A.** inconclusive [inhibitor, single point]

**Q.** Which Potency does the source give for O=C(CN1CCN(c2ccc(O)cc2)CC1)Nc1cc(S(=O)(=O)N2CCCCC2)ccc1Cl here?
**A.** active: 10.3 µM

**Q.** With Cc1cccc(C2(c3cccc(C)c3)CC2C(=O)NCC2CCCO2)c1 (centres undefined) as the molecule, how does the Potency read?
**A.** inconclusive [inhibitor, single point]
